In PubChem BioAssay AID485294 (National Center for Advancing Translational Sciences (NCATS), 2010):
About 150 (0.041%) of roughly 370,000 compounds were called active. The inconclusive results got no clear call from the source; some entries with a clear call stand among them for comparison. Calls follow the shape of the dose curve; as a rule, active = well fitted inhibition curve with a large enough effect; inconclusive = small, poorly fitted or top-dose-only effect; inactive = flat fitted curve, though single readings scatter. No potency is given beside an inconclusive call; the fits are too rough.

target: Beta-lactamase (Escherichia coli (strain K12)) (UniProt P00811); test: qHTS Inhibitors of AmpC Beta-Lactamase (assay with detergent); conditions: AmpC hydrolysis of nitrocefin, absorbance 480 nm, 0.01% Triton; activity change, negative = inhibition: at 114 µM (top of the series); also: nearly all actives have a fitted effect of over 25% in size;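 as to activity change, negative = inhibition: 0% = no-compound wells and -100% = no-enzyme wells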
Chain of UniProt P00811 (P00811 whole entry, looked up): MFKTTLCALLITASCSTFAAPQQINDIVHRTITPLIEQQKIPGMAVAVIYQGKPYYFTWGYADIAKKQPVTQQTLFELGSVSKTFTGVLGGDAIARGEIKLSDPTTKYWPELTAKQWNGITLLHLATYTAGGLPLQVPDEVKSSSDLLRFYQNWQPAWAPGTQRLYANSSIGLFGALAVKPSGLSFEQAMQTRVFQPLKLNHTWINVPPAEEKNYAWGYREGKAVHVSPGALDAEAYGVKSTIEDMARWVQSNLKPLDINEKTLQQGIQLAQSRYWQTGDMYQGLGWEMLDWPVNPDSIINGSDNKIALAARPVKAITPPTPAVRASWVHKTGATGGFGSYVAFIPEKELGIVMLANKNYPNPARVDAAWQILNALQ
How it was run: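 AmpC (5.3 nM in the dispensed reagent) in 20 mM phosphate pH 7.0 with 0.01% (detergent screen) or 0.0001% Triton X-100 was preincubated with compounds for 15 min at room temperature. Nitrocefin was then added from an 800 uM solution, and hydrolysis was followed at 480 nm.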
Potency is read from the fitted curve at half-maximal effect; tags tell the direction and shape of the fitted curve.

Question: CCOc1ccc(S(=O)(=O)Nc2ccc(C(=O)NCC(c3ccco3)N3CCCCC3)cc2)cc1 (configuration not stated) was tested. Which Potency did it give?
Answer: The Potency was inconclusive [inhibitor, full curve, poor fit].

Question: How did the Potency turn out when Cc1ccc(-c2cc(C(=O)NCc3ccc4c(c3)OCO4)no2)cc1 was run?
Answer: The Potency was inconclusive [inhibitor, partial curve].

Question: Cc1ccc(NC(=O)COC(=O)CC2CCCC2)cc1Cl was tested. Which Potency did it give?
Answer: The Potency was inconclusive [inhibitor, full curve, poor fit].

Question: COCCNC(=O)CN(C(=O)Cn1nnc2ccccc21)c1ccc(C)cc1 was tested. Which Potency did it give?
Answer: Its Potency is inconclusive [inhibitor, single point].

Question: For CC(OC(=O)CNS(=O)(=O)c1ccc(C#N)cc1)C(=O)Nc1ccc(Cl)cn1 (configuration not stated), which Potency is on record?
Answer: The Potency was inconclusive [inhibitor, partial curve].

Question: Which Potency does the source give for CCN(CC)CCCNC(=O)C1c2cc(OC)c(OC)cc2C(=O)N(C)C1c1cccs1 (configuration not stated) here?
Answer: The Potency was inconclusive [inhibitor, full curve].

Question: Which Potency does the source give for CCOc1cnc(-c2ccccc2F)o1 here?
Answer: The Potency was inconclusive [inhibitor, full curve].

Question: With Cc1cc2oc(C(=O)Nc3nc(-c4ccccc4)ns3)c(C)c2cc1Cl as the compound, how does the Potency read?
Answer: The Potency was “inactive”.

Question: Which Potency does the source give for CCOC(=O)c1c(N)sc(C(=O)N2CCOCC2)c1C here?
Answer: Its Potency is inconclusive [inhibitor, partial curve].

Question: With Cn1c(=S)[nH]c2sc3c(c2c1=O)CCC(C(C)(C)C)C3 (configuration not stated) as the compound, how does the Potency read?
Answer: Its Potency is “inactive”.

Question: For CCOc1ccc(C2C(C#N)=C(N)N3C(=C2C#N)Sc2ccccc23)cc1 (configuration not stated), which Potency is on record?
Answer: Its Potency is inconclusive [inhibitor, full curve, poor fit].

Question: How did the Potency turn out when CCOC(=O)c1c(NC(C)=O)sc2c(O)c(CN3CCN(CC)CC3)ccc12 was run?
Answer: The Potency was inconclusive [inhibitor, full curve].

Question: With O=C(CSCCO)Nc1cc(C(F)(F)F)ccc1Cl as the compound, how does the Potency read?
Answer: Its Potency is inconclusive [inhibitor, single point].

Question: For CCCCC(=O)Nc1ccc2c(c1)C(=O)NC2=O, which Potency is on record?
Answer: Its Potency is inconclusive [inhibitor, partial curve, poor fit].

Question: With COc1ccccc1CNC(=O)COC(=O)c1cccc(S(=O)(=O)N2CCOCC2)c1 as the compound, how does the Potency read?
Answer: Its Potency is inconclusive [inhibitor, full curve, poor fit].

Question: Which Potency does the source give for COc1cccc(CNC(=O)COC(=O)c2cccc(S(=O)(=O)N3CCN(C(C)=O)CC3)c2)c1 here?
Answer: Its Potency is inconclusive [inhibitor, single point].

Question: CCN1C(=O)CSC1=Nc1cccc(C(=O)O)c1 was tested. Which Potency did it give?
Answer: The Potency was inconclusive [inhibitor, partial curve, poor fit].

Question: With COc1ccc(N(CC(=O)Nc2ccccc2C(=O)NCC(C)C)S(C)(=O)=O)cc1 as the compound, how does the Potency read?
Answer: Its Potency is inconclusive [inhibitor, single point].

Question: How did the Potency turn out when C/C(=N\Nc1nc2ccccc2[nH]1)c1ccc([N+](=O)[O-])cc1 was run?
Answer: Its Potency is “inactive”.

Question: COc1ccc(S(=O)(=O)NCCc2sc3nc(-c4ccc(C)cc4)nn3c2C)cc1C was tested. Which Potency did it give?
Answer: The Potency was “inactive”.

Question: Which Potency does the source give for COC(=O)c1ccc(-c2nc(-c3ccc(Br)o3)no2)cc1 here?
Answer: The Potency was inconclusive [inhibitor, single point].

Question: How did the Potency turn out when CC(=O)Nc1ccc(/C=C(\C#N)C(=O)NC2CCCCC2)cc1 was run?
Answer: Its Potency is inconclusive [inhibitor, full curve, poor fit].

Question: How did the Potency turn out when Cc1nc(-c2ccccc2)nc2[nH]c(=O)n(-c3ccccc3)c(=O)c12 was run?
Answer: The Potency was inconclusive [inhibitor, partial curve, poor fit].

Question: How did the Potency turn out when CC(=O)Nc1c2c(nn1-c1ccc(C)cc1)CS(=O)(=O)C2 was run?
Answer: Its Potency is inconclusive [inhibitor, single point].

Question: Which Potency does the source give for COC(=O)CC1(Cc2ccccc2)C(=O)NC(=O)NC1=O here?
Answer: Its Potency is inconclusive [inhibitor, full curve].

Question: Which Potency does the source give for Brc1ccc2ncnc(Nc3ccc(N4CCOCC4)cc3)c2c1 here?
Answer: Its Potency is inconclusive [inhibitor, full curve, poor fit].

Question: For O=C(CSc1nnc(-c2cccc(F)c2)o1)N1CCCC1, which Potency is on record?
Answer: Its Potency is “inactive”.

Question: How did the Potency turn out when CC(C)CCCN1C(Nc2ccccc2)=NC[C@@H]1C was run?
Answer: The Potency was inconclusive [inhibitor, full curve].

Question: Which Potency does the source give for COc1ccc2c(c1)c1c(c(=O)n(Cc3ccccc3)c(=O)n1Cc1ccccc1Cl)n2C here?
Answer: Its Potency is “inactive”.

Question: For Cc1cccc(NC(=O)CNC(=O)c2ccc(-n3cncn3)c([N+](=O)[O-])c2)c1C, which Potency is on record?
Answer: Its Potency is inconclusive [inhibitor, partial curve, poor fit].

Question: CCOP(=O)(OCC)C(CC)N1CCOCC1 (configuration not stated) was tested. Which Potency did it give?
Answer: Its Potency is inconclusive [inhibitor, full curve, poor fit].

Question: With CCOc1ccc(S(=O)(=O)N2CCCCC2)c2ccccc12 as the compound, how does the Potency read?
Answer: Its Potency is “inactive”.

Question: Cc1cc(O)c(/C=N/Nc2ccc(F)cc2)c(=O)o1 was tested. Which Potency did it give?
Answer: Its Potency is inconclusive [inhibitor, full curve, poor fit].

Question: Which Potency does the source give for Cc1ccc(NC(=O)C2CCC(CNS(=O)(=O)c3ccc4c(c3)CCCC(=O)N4)CC2)cc1F (configuration not stated) here?
Answer: Its Potency is “inactive”.

Question: Which Potency does the source give for CCC(=O)Nc1ccc(NC(=O)c2cc3ccccc3o2)c(OC)c1 here?
Answer: The Potency was inconclusive [inhibitor, full curve, poor fit].

Question: Which Potency does the source give for Cc1cc(NC(=O)Cc2ccccc2)nc2c1c(=O)oc1ccccc12 here?
Answer: Its Potency is inconclusive [inhibitor, full curve].

Question: How did the Potency turn out when CC1(C)CC(=O)C=C(NCc2cccs2)C1 was run?
Answer: Its Potency is inconclusive [inhibitor, full curve].

Question: For CC(NC(=S)Nc1ccccc1)C1COc2ccccc2O1 (configuration not stated), which activity change, negative = inhibition is on record?
Answer: The activity change, negative = inhibition was inconclusive: -17.8% [inhibitor].

Question: With CCOC(=O)Cc1csc(SCC(=O)Nc2nccs2)n1 as the compound, how does the Potency read?
Answer: The Potency was inconclusive [inhibitor, partial curve].

Question: With Cc1ccc(C)c(NC(=O)C(Cc2ccccc2)n2cccc2)c1 (configuration not stated) as the compound, how does the Potency read?
Answer: The Potency was “inactive”.

Question: For Cc1cccc(-n2c(O)c(C=NCc3ccccn3)c3ccccc3c2=O)c1, which Potency is on record?
Answer: The Potency was inconclusive [inhibitor, single point].

Question: COc1ccc(OC)c(NC(=O)Cn2c(=O)n(Cc3ccco3)c(=O)c3cc(OC)c(OC)cc32)c1 was tested. Which Potency did it give?
Answer: Its Potency is “inactive”.

Question: With O=S(=O)(Nc1cccc(S(=O)(=O)N2CCCC2)c1)c1ccc(F)cc1 as the compound, how does the Potency read?
Answer: Its Potency is inconclusive [inhibitor, full curve, poor fit].

Question: N#Cc1ccc(C(=O)OCC(=O)Nc2ccc(S(N)(=O)=O)cc2)cc1 was tested. Which Potency did it give?
Answer: Its Potency is inconclusive [inhibitor, single point].

Question: Which Potency does the source give for COCCn1c(=O)[nH]c2cc(C(=O)N3CCN(c4cccc(Cl)c4)CC3)ccc2c1=O here?
Answer: Its Potency is inconclusive [inhibitor, full curve, poor fit].

Question: Which Potency does the source give for COc1ccc(-n2nc(C(=O)NCC(=O)NCCc3ccc(OC)c(OC)c3)c3ccccc3c2=O)cc1 here?
Answer: Its Potency is inconclusive [inhibitor, full curve, poor fit].

Question: With CCOC(=O)c1sc(N2C(=O)C(O)=C(C(=O)c3ccc(C)o3)C2c2cccc([N+](=O)[O-])c2)nc1C (configuration not stated) as the compound, how does the Potency read?
Answer: The Potency was “inactive”.

Question: How did the Potency turn out when Cc1ccc(C)c(NC(=O)CSc2nnc(-c3ccccc3C)o2)c1 was run?
Answer: Its Potency is inconclusive [inhibitor, partial curve, poor fit].

Question: Which Potency does the source give for O=C(c1cc(-c2ccccc2O)on1)N1CCCC1 here?
Answer: The Potency was inconclusive [inhibitor, full curve, poor fit].

Question: How did the Potency turn out when CN(C)CCCN(C(=O)c1ccc(S(=O)(=O)N2CCCCCC2)cc1)c1nc2c(F)cc(F)cc2s1 was run?
Answer: The Potency was inconclusive [inhibitor, single point].

Question: COc1ccc(OC)c(CCNC(=O)CN2C(=O)CC(C)(C)S(=O)(=O)c3ccccc32)c1 was tested. Which Potency did it give?
Answer: The Potency was inconclusive [inhibitor, full curve, poor fit].

Question: Which Potency does the source give for Cc1cc(NC(=O)COc2ccc(F)c(Cl)c2)no1 here?
Answer: The Potency was inconclusive [inhibitor, full curve].

Question: For COc1ccc(-c2nnc(SCCOc3cccc(C)c3)n2N)cc1, which Potency is on record?
Answer: The Potency was inconclusive [inhibitor, full curve, poor fit].

Question: For CC(C)c1ccc(NS(=O)(=O)c2cccc3cccnc23)cc1, which Potency is on record?
Answer: The Potency was inconclusive [inhibitor, full curve, poor fit].

Question: With Cc1ccc(N2CCN(C(=S)c3ccc(-c4cccc([N+](=O)[O-])c4)o3)CC2)cc1 as the compound, how does the Potency read?
Answer: Its Potency is “inactive”.

Question: Which Potency does the source give for Cc1ccc(C(=O)NC(=S)NCCCN2CCOCC2)cc1 here?
Answer: Its Potency is “inactive”.

Question: CN(CC1CCOCC1)C(=O)CC1C(=O)NCCN1Cc1cccc(C(F)(F)F)c1 (configuration not stated) was tested. Which Potency did it give?
Answer: Its Potency is inconclusive [inhibitor, partial curve].

Question: For Nc1c(C(=O)Nc2ccc3c(c2)OCCO3)nnn1Cc1ccc(F)cc1, which Potency is on record?
Answer: Its Potency is “inactive”.

Question: Which Potency does the source give for CCOC(=O)N1CCN(C(=O)CSc2nnc(-c3ccc(C(C)(C)C)cc3)o2)CC1 here?
Answer: The Potency was inconclusive [inhibitor, full curve, poor fit].

Question: COc1ccc(OC)c(NC(=O)c2cc(-c3cc(C)c(C)cc3O)n[nH]2)c1 was tested. Which Potency did it give?
Answer: Its Potency is “inactive”.

Question: With S=C(NCc1cccs1)Nc1cccc(Cl)c1 as the compound, how does the Potency read?
Answer: The Potency was “inactive”.

Question: N#Cc1ccc(Sc2nc3ccccc3[nH]2)cc1C#N was tested. Which Potency did it give?
Answer: Its Potency is “inactive”.

Question: For Cc1ccc(NC(=O)c2cc(=O)c3ccccc3o2)cc1S(=O)(=O)N1CCOCC1, which Potency is on record?
Answer: Its Potency is “inactive”.

Question: For N#Cc1ccccc1S(=O)(=O)Nc1ccc2c(c1)OCCO2, which Potency is on record?
Answer: Its Potency is “inactive”.

Question: For NNc1ccc2c(C(F)(F)F)cc(C(F)(F)F)nc2n1, which Potency is on record?
Answer: The Potency was “inactive”.

Question: For O=C(CSc1nnc(Cn2nnc3ccccc32)o1)N(Cc1ccc(Cl)cc1)c1ccccc1, which Potency is on record?
Answer: Its Potency is inconclusive [inhibitor, full curve].

Question: For Cc1noc(C)c1C(=O)NC(C)c1ccc(Cl)cc1Cl (configuration not stated), which Potency is on record?
Answer: Its Potency is inconclusive [inhibitor, full curve, poor fit].
